SMILES strings stand for the structures. The campaign covered roughly 39,000 compounds. About 220 (0.56%) showed activity. This is one part of the list.
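Further: static incubation at 37 °C against the wild-type strain, values averaged over two biological replicates.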

In the test the test system is Escherichia coli K-12 BW25113. As to the kind of experiment: relative growth (OD600 normalised to plate interquartile mean) (fraction); higher = less growth inhibition, active = 0.2 or less. The following applies: 50 µM; LB; incubation time: overnight (16-24 h).
Take `C[C@@H]1CCCCO[C@H](CN(C)C(=O)CCC(F)(F)F)[C@@H](C)CN([C@H](C)CO)C(=O)c2cc(NC(=O)NC3CCCCC3)ccc2O1`: the relative growth is inactive: 0.92. The value for `O=C(C[C@H]1CC[C@H]2[C@@H](COC[C@H](O)CN2C(=O)Nc2cc(Cl)cc(Cl)c2)O1)N1CCOCC1` was inactive: 0.963.

Regarding `COCC#Cc1ccc2c(c1)O[C@@H](CN(C)C(=O)Nc1ccc(OC)cc1)[C@H](C)CN([C@@H](C)CO)S2(=O)=O`, the relative growth is inactive: 1. As to `CO[C@@H]1CN(C)C(=O)c2cc(NC(=O)c3cc(C)on3)ccc2OC[C@@H](C)N(S(=O)(=O)c2ccccc2)C[C@H]1C`, the relative growth was inactive: 0.962.

For `C[C@H]1CN([C@@H](C)CO)C(=O)Cc2cc(NC(=O)CCCN(C)C)ccc2O[C@@H]1CN(C)S(C)(=O)=O`, the relative growth is inactive: 0.984.

Consider `C[C@H]1CN([C@@H](C)CO)S(=O)(=O)c2ccc(Br)cc2O[C@@H]1CN(C)S(=O)(=O)c1ccccc1`, for which the relative growth was inactive: 0.857. For `CC(=O)NCCCC[C@@H]1NC(=O)[C@H]2C[C@@H](C(=O)NCCCC[N+](C)(C)C)[C@@H](c3cccc(OCCO)c3)N2C1=O` the value was inactive: 0.996. For the molecule `C=CCC[C@@H](Cc1ccc(F)cc1)C(=O)OC[C@@H](NC(=O)[C@H](CC=C)CC(=O)N(CCO)Cc1ccccc1)C(C)(C)C`, the relative growth is inactive: 1.06. `C[C@@H]1CN([C@H](C)CO)C(=O)c2cc(NS(=O)(=O)c3ccccc3)ccc2O[C@H]1CN(C)S(C)(=O)=O`: the relative growth is inactive: 0.99. For `COc1cccc(S(=O)(=O)N2C[C@@H](O)COC[C@H]3O[C@H](CC(=O)N4CCOCC4)CC[C@@H]32)c1` the value was inactive: 1; for `C[C@@H]1CN([C@H](C)CO)C(=O)c2cccc(NC(=O)Nc3cccc4ccccc34)c2O[C@@H]1CN(C)S(=O)(=O)c1ccc(Cl)cc1`, inactive: 1.01.

With `O=C(Nc1ccc(-c2nc3ccc(NC(=O)c4ccc(Cl)cc4)cc3[nH]2)cc1)c1ccc(Cl)cc1`, the relative growth was inactive: 1.04. As to `C[C@@H]1CCCCO[C@H](CN(C)Cc2ccncc2)[C@H](C)CN([C@@H](C)CO)C(=O)c2cc(NC(=O)CCC(F)(F)F)ccc2O1`, the relative growth is inactive: 1. The value for `COc1ccc(S(=O)(=O)N(C)C[C@@H]2Oc3ccc(NS(=O)(=O)c4ccc(F)cc4)cc3CC(=O)N([C@@H](C)CO)C[C@@H]2C)cc1` was inactive: 1.01; that for `NC[C@H]1O[C@H](O[C@H]2[C@@H](O[C@@H]3O[C@H](CO)[C@@H](O)[C@H]3O)[C@@H](O)[C@H](N)C[C@@H]2N)[C@H](N)[C@@H](O)[C@@H]1O` was inactive: 0.981. Consider `COc1ccc(CN(C)C[C@@H]2OCCCC[C@@H](C)Oc3ccc(NC(=O)Nc4cccc5ccccc45)cc3C(=O)N([C@H](C)CO)C[C@@H]2C)cc1`, for which the relative growth is inactive: 1.01.

As for `COc1ccc2c3c(n(c2c1)C)[C@@H](CO)N(C[C@]13CCN(CC1)C(=O)Nc1ccc(cc1F)F)C(=O)Nc1ccc(cc1)F`, the relative growth was inactive: 0.991. For `CO[C@H]1CN(C)C(=O)c2cc(NS(=O)(=O)c3cn(C)cn3)ccc2OC[C@H](C)N(CC2CC2)C[C@H]1C` the value was inactive: 0.988; for `C[C@H](CO)N1C[C@H](C)[C@H](CN(C)C(=O)c2cccc(F)c2)Oc2cc(-c3cccnc3)ccc2S1(=O)=O`, inactive: 1.03. As for `COc1ccc(S(=O)(=O)N(C)C[C@@H]2Oc3ncc(C#Cc4ccccc4)cc3C(=O)N([C@H](C)CO)C[C@@H]2C)cc1`, the relative growth is inactive: 0.891. As to `O=c1[nH]c2ccccc2c(=O)n1CCCO`, the relative growth was inactive: 0.968. For `COc1ccc(-c2cnc3c(c2)C(=O)N([C@H](C)CO)C[C@@H](C)[C@H](CN(C)S(=O)(=O)c2ccc(OC)cc2)O3)cc1` the value was inactive: 1; for `COc1cccc(C(=O)Nc2ccc3c(c2)C(=O)N(C)[C@H]2CC[C@@H](CC(=O)NCCCN4CCOCC4)O[C@H]2CO3)c1`, inactive: 1. With `C[C@H]1CN([C@@H](C)CO)C(=O)CCCn2nncc2CO[C@H]1CN(C)C(=O)Nc1ccc2c(c1)OCCO2`, the relative growth is inactive: 0.994. For `C[C@@H]1CN([C@@H](C)CO)C(=O)c2cccc(NC(=O)Nc3ccc(F)cc3)c2O[C@@H]1CN(C)Cc1ccc(-c2ccccc2)cc1` the value was inactive: 0.994; for `COC(=O)c1c2oc(c1C(=O)OC)C(=O)N(C)Cc1cn(nn1)C[C@H](Cc1ccccc1)NC(=O)N[C@H](CO)CC2`, inactive: 0.992. With `COc1ccc([Si](C)(C)[C@H]2[C@H](CC(=O)N3Cc4ccccc4C[C@H]3CO)O[C@@]3(C(=O)N(Cc4cccc(N5C(=O)c6cccc7cccc5c67)c4)c4ccccc43)[C@@H]2C)cc1`, the relative growth was inactive: 1.01. The value for `Cc1noc(C)c1NC(=O)Nc1ccc2c(c1)C(=O)N([C@H](C)CO)C[C@H](C)[C@@H](CN(C)C(=O)Nc1ccc(C(F)(F)F)cc1)O2` was inactive: 0.947; that for `Cc1noc(C)c1NC(=O)Nc1ccc2c(c1)CC(=O)N([C@@H](C)CO)C[C@H](C)[C@@H](CN(C)Cc1ccc(Oc3ccccc3)cc1)O2` was inactive: 0.998. The value for `CN1C(=O)c2cc(NC(=O)Cc3cccs3)ccc2OC[C@H]2O[C@@H](CC(=O)NCCCN3CCOCC3)CC[C@H]21` was inactive: 0.992; that for `C[C@H](CO)N1C[C@H](C)[C@@H](CN(C)S(C)(=O)=O)Oc2ccc(NC(=O)Nc3ccc4c(c3)OCO4)cc2CC1=O` was inactive: 1.02. The value for `C[C@@H]1CN([C@H](C)CO)C(=O)c2ccccc2-c2ccccc2CO[C@H]1CN(C)C(=O)Nc1ccccc1C(F)(F)F` was inactive: 0.986. In the case of `C[C@H]1CCCCO[C@H](CN(C)CC2CCCCC2)[C@@H](C)CN([C@@H](C)CO)C(=O)c2cc(NC(=O)CCC(F)(F)F)ccc2O1`, the relative growth was inactive: 0.966.

As for `CC(C)CC#Cc1ccc2c(c1)O[C@H](CN(C)S(=O)(=O)c1cccc(F)c1)[C@H](C)CN([C@@H](C)CO)S2(=O)=O`, the relative growth is inactive: 1.05. For `Cc1noc(C)c1NC(=O)N(C)C[C@@H]1Oc2ccc(NC(=O)CCN3CCOCC3)cc2CC(=O)N([C@H](C)CO)C[C@@H]1C` the value was inactive: 1.01; for `O=C(Cc1ccncc1)Nc1ccc2c(c1)[C@H]1C[C@H](CC(=O)N3CCc4ccccc4C3)O[C@@H](CO)[C@H]1O2`, inactive: 1.01; for `Cc1ccccc1-c1ncc(-c2ccc(Br)cc2)o1`, inactive: 0.982. On to `COc1ccc(NC(=O)Nc2ccc3c(c2)C(=O)N([C@H](C)CO)C[C@H](C)[C@H](CN(C)C(=O)Nc2ccc(OC)cc2)OCCCC[C@H](C)O3)cc1`, for which the relative growth was inactive: 1.05. For the molecule `C[C@@H]1CN([C@H](C)CO)C(=O)c2cccc(NC(=O)c3nc4ccccc4s3)c2O[C@@H]1CN(C)Cc1ccc(C(F)(F)F)cc1`, the relative growth was inactive: 0.957. For `Cc1ccc(S(=O)(=O)Nc2ccc3c(c2)C(=O)N([C@H](C)CO)C[C@@H](C)[C@@H](CN(C)Cc2ccc(C(F)(F)F)cc2)OCCCC[C@H](C)O3)cc1` the value was inactive: 1.02. For `COc1ccc(S(=O)(=O)Nc2ccc3c(c2)CC(=O)N([C@@H](C)CO)C[C@@H](C)[C@@H](CN(C)S(=O)(=O)c2cn(C)cn2)O3)cc1` the value was inactive: 0.995. Turning to `C[C@@H]1CN([C@H](C)CO)S(=O)(=O)c2ccc(C#Cc3ccncc3)cc2O[C@@H]1CN(C)C(=O)C1CCCCC1`, the relative growth is inactive: 0.983. The value for `C[C@H]1CN([C@@H](C)CO)C(=O)c2cc(NC(=O)C3CC3)ccc2O[C@@H]1CN(C)C(=O)Nc1ccc2c(c1)OCO2` was inactive: 0.992; that for `COc1ccc(S(=O)(=O)Nc2cccc3c2O[C@H](CN(C)Cc2ccc(-c4ccccc4)cc2)[C@@H](C)CN([C@H](C)CO)C3=O)cc1` was inactive: 1.06. On to `C[C@@H]1CN([C@H](C)CO)C(=O)c2cc(NS(=O)(=O)c3ccccc3)ccc2O[C@@H](C)CCCCO[C@H]1CN(C)S(=O)(=O)c1ccc(Cl)cc1`, for which the relative growth is inactive: 0.996. The value for `Cc1noc(C)c1NC(=O)N(C)C[C@H]1OCCCC[C@@H](C)Oc2ccc(NC(=O)CCC(F)(F)F)cc2C(=O)N([C@H](C)CO)C[C@H]1C` was inactive: 1.02; that for `C[C@@H]1CN([C@@H](C)CO)C(=O)c2cc(NC(=O)Nc3ccccc3)ccc2O[C@@H]1CN(C)C(=O)Nc1ccc(C(F)(F)F)cc1` was inactive: 0.978. For `C[C@@H]1CN([C@@H](C)CO)C(=O)c2cc(C#Cc3ccccn3)cnc2O[C@@H]1CN(C)C(=O)c1cnccn1`, the relative growth is inactive: 0.987. For `COc1ccccc1S(=O)(=O)N(C)C[C@H]1OCc2cn(nn2)CCCC(=O)N([C@H](C)CO)C[C@@H]1C` the value was inactive: 0.964; for `CO[C@@H]1CN(C)C(=O)c2cc(NC(=O)CC(F)(F)F)ccc2OC[C@H](C)N(S(=O)(=O)c2cn(C)cn2)C[C@H]1C`, inactive: 0.996. For `CC(C)CC#Cc1cnc2c(c1)C(=O)N([C@@H](C)CO)C[C@@H](C)[C@H](CN(C)C(=O)CCN1CCCCC1)O2` the value was inactive: 0.987. For `COc1ccc([C@H]([C@H](Cc2ccccc2)OC(C)=O)N(CC#C[C@@H](O[Si](c2ccccc2)(c2ccccc2)C(C)(C)C)c2ccccc2)[C@@H](Cc2ccccc2)C(OC)OC)cc1` the value was inactive: 1.04; for `COCCNC(=O)C[C@H]1CC[C@H]2[C@@H](COC[C@H](O)CN2C(=O)Nc2ccc3c(c2)OCO3)O1`, inactive: 0.999; for `C[C@@H]1CN([C@@H](C)CO)C(=O)c2cc(NS(=O)(=O)c3cccs3)ccc2O[C@@H](C)CCCCO[C@H]1CN(C)S(=O)(=O)c1ccc(Cl)cc1`, inactive: 0.987.

As for `C[C@@H]1CN([C@@H](C)CO)C(=O)c2ccccc2-c2ccccc2CO[C@@H]1CN(C)Cc1ccc(-c2ccccc2)cc1`, the relative growth is inactive: 1. The value for `C[C@@H]1CN([C@@H](C)CO)C(=O)c2cc(NS(=O)(=O)c3cccs3)ccc2O[C@@H](C)CCCCO[C@@H]1CN(C)Cc1ccccc1` was inactive: 0.977.

Source of the values: the supplement of paper PMC9446081.
